Measurements published in PubChem BioAssay AID504706 (National Center for Advancing Translational Sciences (NCATS), 2011).
In all, about 320,000 compounds went through this assay and about 200 (0.062%) were called active. The inconclusive results got no clear call from the source; some entries with a clear call stand among them for comparison. Calls follow the shape of the dose curve; as a rule, active = well fitted activation curve with a large enough effect; inconclusive = small, poorly fitted or top-dose-only effect; inactive = no such curve, though single readings can be large or run the other way. No potency is given beside an inconclusive call; the fits are too rough.

Test: qHTS assay for re-activators of p53 using a Luc reporter; also: nearly all actives have a fitted effect of over 45% in size; as to activity change, positive = activation: % of control where 0% means no effect
Conditions: H1299 p53-A138V BP100-luciferase reporter, luminescence, 24 h; series mostly up to 92.2 µM; activity change, positive = activation: at the top concentration
Summary of the method: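 p53-null H1299 cells stably carrying temperature-sensitive p53-A138V and a BP100-luciferase reporter were pinned with compounds (4-point, 1:5 series) and held 24 hrs at 37 deg C. Luminescence was read 10 min after detection reagent.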
Potency is read from the fitted curve at half-maximal effect; tags tell the direction and shape of the fitted curve.

| SMILES | Potency | activity change, positive = activation |
| --- | --- | --- |
| N#Cc1c(-c2ccccc2)cc2nc3ccccc3n2c1N | inconclusive [activator, partial curve, poor fit] |  |
| C=CCNC(=O)C(=O)NCC(c1ccc2c(c1)OCO2)N1CCN(c2ccc(F)cc2)CC1 (centres undefined) | inconclusive [activator, single point] |  |
| O=C(NCc1cc(F)cc(C(F)(F)F)c1)C1CCC(=O)N(C2CCCC2)C1 (centres undefined) | inconclusive [activator, single point] |  |
| Cc1ccc(Nc2c(-c3ccc(C)o3)nc3cnccn23)cc1 | inconclusive [activator, full curve, poor fit] |  |
| O=[N+]([O-])c1cccc(OCCN2CCC(Cc3ccccc3)CC2)c1 |  | inactive: 6.35% |
| Nc1nc(SCCO)[nH]c(=O)c1NC(=O)c1ccco1 | inconclusive [activator, single point] |  |
| CCOC(=O)Cc1c(C)nc2cc(-c3ccc(C)cc3)[nH]n2c1=O | inconclusive [activator, partial curve, poor fit] |  |
| Cc1ccc(SCC(=O)c2ccc[nH]2)cc1 |  | inactive: 3.69% |
| c1ccc(-n2ncc3c(NCCN4CCCCC4)ncnc32)cc1 | inconclusive [activator, partial curve, poor fit] |  |
| Cc1ccc(N2C(=O)c3ccccc3C2C(=O)c2cc(C)ccc2O)cc1 (centres undefined) | inconclusive [activator, partial curve, poor fit] |  |
| O=C(N/N=C/c1ccc(OC(=O)c2cccs2)cc1)c1ccccn1 | inconclusive [activator, single point] |  |
| COc1cccc(-c2ccc(-c3noc(-c4cccs4)n3)c(OC)n2)c1 |  | inactive: 16.3% |
| CC(C)c1ccc(-c2nnc(N)s2)cc1 | inconclusive [activator, partial curve, poor fit] |  |
| Cc1ccc(C)c(OCCCN2CCNCC2)c1 | inconclusive [activator, full curve, poor fit] |  |
| O=C(NCc1ccccn1)c1cccc(NS(=O)(=O)c2ccc(Br)cc2)c1 |  | inactive: 1.27% |
| CCN1CCN(Cc2ccc(OCc3ccccc3)cc2)CC1 | inconclusive [activator, partial curve, poor fit] |  |
| O=C1c2ccccc2-c2onc3ccc(NCc4ccco4)c1c23 |  | inactive: 13.1% |
| CCc1nc2sc3c(=O)[nH]cnc3c2c2c1CSC(C)(C)C2 |  | inactive: -0.906% |
| O=C(Cc1ccccc1)Nc1nnc(-c2cccs2)s1 | inconclusive [activator, partial curve, poor fit] |  |
